PubChem BioAssay AID1347417 (National Center for Advancing Translational Sciences (NCATS), 2020)
Out of some 120,000 compounds screened, about 5,300 (4.4%) were called active. The shares of active, inactive and inconclusive entries below differ from those in the screen. Calls come from the whole dose curve; as a rule, active = well fitted inhibition curve with a large enough effect; inconclusive = small, poorly fitted or top-dose-only effect; inactive = no such curve, though single readings can be large or run the other way. A potency beside an inconclusive call is a rough fit, not a confirmed value.

Experiment: qHTS Primary assay for Inhibitors of Plasmodium falciparum Dd2 growth in vitro; note: nearly all actives have a fitted effect of over 65% in size
Details: P. falciparum Dd2 growth, SYBR Green, 72 h; series mostly up to 28.9 µM
Summary of the method: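 Readout: SYBR Green fluorescence, 485 nm excitation, 535 nm emission, after ~16 h lysis at 37C. Before that, Dd2-infected red cells (2.5% hematocrit) grew 72 h with compound, 29 uM top final concentration.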
Potency is the fitted concentration of half-maximal effect; tags give direction and shape of the fitted curve.

Question: With `CCN(c1ccc(OC)cc1)S(=O)(=O)c1ccc2[nH]c3c(c2c1)CCCCC3` as the compound, how does the Potency read?
Answer: inconclusive: 10 µM [inhibitor, single point]

Question: For `CC(C)Oc1ccc2c(NC(=O)c3ccn(C)n3)nn(CC(F)(F)F)c2c1`, which Potency is on record?
Answer: inconclusive: 0.631 µM [inhibitor, full curve, poor fit]

Question: For `O=C(C1CCOCC1)N1CCCCCCn2c(nnc2-c2ccc(F)cc2)CC1`, which Potency is on record?
Answer: inactive

Question: Which Potency does the source give for `COc1ccccc1CNC(=O)C1(c2ccc(NC(C)=O)cc2)CCCCC1` here?
Answer: inconclusive: 12.6 µM [inhibitor, partial curve, poor fit]

Question: For `COc1ccc(C2CC(=O)c3cc(-c4nc(-c5cccc([N+](=O)[O-])c5)cs4)c(=O)n(-c4ccccc4N)c3C2)cc1` (stereo not drawn), which Potency is on record?
Answer: inconclusive: 8.91 µM [inhibitor, single point]

Question: With `CNc1nccc(N2CCC(CC(=O)NCc3cccc(OC)c3OC)CC2)n1` as the compound, how does the Potency read?
Answer: inconclusive: 2.51 µM [inhibitor, full curve]

Question: Which Potency does the source give for `Cc1cccc(C(=O)N2CCC(C3CCN(S(C)(=O)=O)CC3)C2)c1` (stereo not drawn) here?
Answer: inactive

Question: Which Potency does the source give for `CCOC(=O)c1cc(S(=O)(=O)Nc2ccccc2)[nH]n1` here?
Answer: inconclusive: 10 µM [inhibitor, single point]

Question: Which Potency does the source give for `N#Cc1ccc(C(=O)N2CC[C@H]3C(=O)NCCCCCCN(Cc4ccncc4)[C@@H]3C2)cc1` here?
Answer: inactive

Question: Which Potency does the source give for `c1cncc(-c2ccnc(NCCCN3CCCc4ccccc43)n2)c1` here?
Answer: active: 11.2 µM

Question: With `Cc1ccc(NC(=O)CN2C(=O)NC3(CCCCC3)C2=O)cc1Cl` as the compound, how does the Potency read?
Answer: inconclusive: 17.8 µM [inhibitor, single point]

Question: For `CN1CCN(C(=O)c2ccc3c(c2)N(Cc2ccc(F)cc2)C(=O)c2ccccc2S3(=O)=O)CC1`, which Potency is on record?
Answer: inconclusive: 3.16 µM [inhibitor, partial curve, poor fit]

Question: Which Potency does the source give for `O=C(c1cnc2ccccn12)N1CCc2c(nc(-c3ccccc3)[nH]c2=O)C1` here?
Answer: inconclusive: 2.82 µM [inhibitor, single point]

Question: For `CN(Cc1ccccc1)Cc1cn([C@H]2CO[C@H]3[C@@H]2OC[C@@H]3NC(=O)c2ccc(C(F)(F)F)cc2)nn1`, which Potency is on record?
Answer: inactive

Question: For `Cc1noc(C)c1C(=O)N1CC(c2noc(C3CCCN3CC3CC3)n2)C1` (stereo not drawn), which Potency is on record?
Answer: inconclusive: 6.31 µM [inhibitor, partial curve, poor fit]

Question: Which Potency does the source give for `Cc1oc2ccn(Cc3ccccc3F)c(=O)c2c1C(=O)NC1CCCCC1` here?
Answer: inactive

Question: For `O=C(c1ccc2cc[nH]c2c1)N1CCC(n2cc(-c3nc(-c4ccccc4)no3)nn2)CC1`, which Potency is on record?
Answer: inconclusive: 0.708 µM [inhibitor, partial curve]

Question: For `FC(F)(F)c1ccnc(N2CCOCC3(CN(Cc4ccccc4)C3)C2)n1`, which Potency is on record?
Answer: inactive

Question: Which Potency does the source give for `CC(=O)N1CC(CO)C2(CCN(Cc3ccc(C)o3)CC2)C1` (stereo not drawn) here?
Answer: inactive

Question: For `Cc1ccc(-c2cc(N3CCC(CNC(=O)c4ccc[nH]4)CC3)n[nH]2)cc1`, which Potency is on record?
Answer: inconclusive: 17.8 µM [inhibitor, single point]

Question: Which Potency does the source give for `COc1cccc(-c2nnnn2[C@H]2CO[C@H]3[C@@H]2OC[C@@H]3NS(=O)(=O)c2ccc(NC(C)=O)cc2)c1` here?
Answer: inconclusive: 17.8 µM [inhibitor, single point]

Question: Which Potency does the source give for `COc1ccc(Nc2ccnc(N3CC4CCC(C3)N4CC(F)(F)F)n2)cc1` here?
Answer: inconclusive: 8.91 µM [inhibitor, single point]

Question: With `COc1cccc(CN2CCc3c(cc(C(=O)NCc4cccs4)n3C)C2)c1` as the compound, how does the Potency read?
Answer: inconclusive: 6.31 µM [inhibitor, partial curve, poor fit]

Question: With `Cc1cc(C)c(OCC(=O)N(Cc2ccc(N(C)C)cc2)Cc2ccco2)c(C)c1` as the compound, how does the Potency read?
Answer: inconclusive: 20 µM [inhibitor, single point]

Question: With `O=[S+]1([O-])NCC2(CCN(CC3CCOCC3)C2)Oc2ncccc21` (stereo not drawn) as the compound, how does the Potency read?
Answer: inactive

Question: Which Potency does the source give for `O=C(NCc1ccc2c(c1)OCO2)c1ccc2c(c1)N(Cc1c(F)cccc1Cl)C(=O)c1ccccc1S2` here?
Answer: active: 7.08 µM

Question: For `CNC(=O)c1cc(-c2cccc(OC)c2OC)cc2c1OCCN2Cc1cccnc1`, which Potency is on record?
Answer: active: 12.6 µM

Question: Which Potency does the source give for `COCc1noc([C@@H]2CC(F)(F)CN2C(=O)C(C)C)n1` here?
Answer: inactive

Question: With `Cc1ccccc1Cn1c(CN2CCC(C(=O)NCc3ccc(Cl)cc3)CC2)cc2ccccc21` as the compound, how does the Potency read?
Answer: inactive

Question: Which Potency does the source give for `COc1ccccc1CC(=O)NC1CCN(c2cc(C(F)(F)F)ncn2)CC1` here?
Answer: inactive

Question: Which Potency does the source give for `CCCCN(C)C(=O)c1ccc2c(=O)n3nc(Nc4cc(C)ccc4C)sc3nc2c1` here?
Answer: inconclusive: 12.6 µM [inhibitor, single point]

Question: For `O=S1(=O)c2ccccc2N(Cc2ccccc2F)c2ccccc21`, which Potency is on record?
Answer: inconclusive: 10 µM [inhibitor, partial curve, poor fit]

Question: For `Cn1cc(-c2ccncc2)cc1C(=O)N1CCN(c2cccc(Cl)c2)CC1`, which Potency is on record?
Answer: inconclusive: 10 µM [inhibitor, single point]

Question: With `O=C(OCc1ccccc1)N1CCOCC12CCN(Cc1cccc(O)c1)CC2` as the compound, how does the Potency read?
Answer: inconclusive: 2 µM [inhibitor, partial curve, poor fit]

Question: Which Potency does the source give for `O=C(Nc1ccc(Cl)cc1)N1Cc2[nH]cnc2C[C@H]1c1nc(-c2ccc3ccccc3c2)no1` here?
Answer: inconclusive: 17.8 µM [inhibitor, single point]

Question: With `O=C(c1n[nH]c2ccccc12)N1CCCC1c1nc(CCOCC2CC2)no1` (stereo not drawn) as the compound, how does the Potency read?
Answer: inconclusive: 17.8 µM [inhibitor, single point]

Question: For `O=C(c1n[nH]c2ccccc12)N1CCc2nn(Cc3ccccc3)c(=O)n2CC1`, which Potency is on record?
Answer: inconclusive: 7.94 µM [inhibitor, single point]

Question: With `O=C1NCc2ccccc2CC12CCCCN2Cc1cnc2ccccc2c1` (stereo not drawn) as the compound, how does the Potency read?
Answer: inconclusive: 10 µM [inhibitor, single point]

Question: Which Potency does the source give for `CN[C@@H](C)c1nc(C2CCOCC2)nn1CC1CCCCC1` here?
Answer: inconclusive: 17.8 µM [inhibitor, partial curve, poor fit]

Question: For `Cc1nonc1OCCn1cc(C2CCCNC2)nn1` (stereo not drawn), which Potency is on record?
Answer: inactive

Question: For `COCCNC(=O)[C@H]1C[C@H](Oc2ccccc2)CN1C(=O)COC`, which Potency is on record?
Answer: inactive

Question: For `Cc1cc(F)ccc1OC1CN(Cc2ccccc2)C1`, which Potency is on record?
Answer: inconclusive: 2.82 µM [inhibitor, partial curve]

Question: Which Potency does the source give for `CCN1CCc2c(sc(NC(=O)c3ccc(S(=O)(=O)N4CCCC(C)C4)cc3)c2C(=O)OC)C1` (stereo not drawn) here?
Answer: inconclusive: 11.2 µM [inhibitor, single point]

Question: With `O=C1c2cnc(-c3ccncc3)nc2OCCN1Cc1ccc(F)cc1F` as the compound, how does the Potency read?
Answer: inactive

Question: Which Potency does the source give for `Cc1cccc(N(C)C(=O)Cn2c(=O)oc3cc(S(=O)(=O)N4CCCCC4)ccc32)c1` here?
Answer: inconclusive: 17.8 µM [inhibitor, single point]

Question: Which Potency does the source give for `CCOc1ccccc1CN1C[C@@H](CO)[C@H](c2nc(C)no2)C1` here?
Answer: inconclusive: 10 µM [inhibitor, partial curve, poor fit]

Question: With `COc1ccc(Nc2cc3c(nc2OC)nc(CCc2ccccc2)n3C)cn1` as the compound, how does the Potency read?
Answer: inconclusive: 6.31 µM [inhibitor, full curve, poor fit]

Question: For `CC1=C[C@@H](CNC(=O)CN(C)C)[C@H](C(C)C)C[C@H]1Cc1nnc(-c2ccccc2F)o1`, which Potency is on record?
Answer: inconclusive: 4.47 µM [inhibitor, partial curve, poor fit]

Question: For `CN1CCN(C2CCOC3(CCN(S(=O)(=O)c4cn(C)cn4)CC3)C2)CC1` (stereo not drawn), which Potency is on record?
Answer: inconclusive: 3.98 µM [inhibitor, single point]

Question: Which Potency does the source give for `Cc1ccc(-c2csc(-c3c(N)c(C(=O)c4ccc5c(c4)OCO5)n4ccccc34)n2)cc1` here?
Answer: inconclusive: 11.2 µM [inhibitor, single point]

Question: Which Potency does the source give for `COc1ccc(-n2c(-c3cccc(F)c3)nc3c(cnn3-c3ccc(C)cc3)c2=O)cc1` here?
Answer: inconclusive: 17.8 µM [inhibitor, single point]

Question: With `O=C(NC1CCN(C(=O)N2CC3CC(C2)[C@H]2CCCC(=O)N2C3)CC1)c1cccnc1` (stereo partly drawn) as the compound, how does the Potency read?
Answer: inactive

Question: With `COc1cccc(-c2cc(C3CCN(C(=O)Nc4cc(C)cc(C)c4)CC3)[nH]n2)c1` as the compound, how does the Potency read?
Answer: inconclusive: 10 µM [inhibitor, single point]

Question: With `OC1CC([C@H](NC2CSCCSC2)c2ccc3c(c2)CCO3)C1` (stereo partly drawn) as the compound, how does the Potency read?
Answer: inconclusive: 17.8 µM [inhibitor, single point]

Question: Which Potency does the source give for `CC1=NOC2(CCN(Cc3ccc(N(C)C)cc3)CC2)C1` here?
Answer: active: 10 µM

Question: Which Potency does the source give for `CC(C)(C)CC(=O)Nc1nc2c(s1)C[C@@H]1[C@](C)(CO)[C@H](O)CC[C@@]1(C)[C@@H]2CC(=O)NC1CCCCC1` here?
Answer: inconclusive: 1.12 µM [inhibitor, partial curve, poor fit]

Question: Which Potency does the source give for `CCOc1ccc(CCNC(=O)Cn2c(-c3cccs3)cc3ccccc32)cc1` here?
Answer: inconclusive: 17.8 µM [inhibitor, single point]

Question: With `CCC(C)S(=O)(=O)c1oc(-c2cccs2)nc1S(=O)(=O)c1ccccc1` (stereo not drawn) as the compound, how does the Potency read?
Answer: active: 12.6 µM

Question: Which Potency does the source give for `CCOc1ccccc1CNCc1c(C(=O)O)c(C)n(Cc2ccc(C)cc2)c1C` here?
Answer: inconclusive: 8.91 µM [inhibitor, single point]

Question: With `Cc1cccc(N2CCN(C(=O)C3CCN(C(=O)c4cc5sccc5n4C)CC3)CC2C)c1` (stereo not drawn) as the compound, how does the Potency read?
Answer: inconclusive: 14.1 µM [inhibitor, partial curve, poor fit]

Question: For `CCc1nc(-c2c3n(c(=O)n(CC(=O)Nc4cccc(C#N)c4)c2=O)CCCC3)no1`, which Potency is on record?
Answer: inconclusive: 17.8 µM [inhibitor, single point]

Question: For `Cc1noc([C@@H]2CN(C(=O)c3ccsc3)C[C@H]2C(N)=O)n1`, which Potency is on record?
Answer: inconclusive: 20 µM [inhibitor, single point]

Question: For `COc1ccccc1CNC(=O)CCn1ccn2nc3c(c2c1=O)CCCC3`, which Potency is on record?
Answer: inconclusive: 10 µM [inhibitor, single point]
